Results as given in PubChem BioAssay AID488969 (Vanderbilt High Throughput Screening Facility, 2010).
Over roughly 110,000 compounds, “z-score” has its median near -0.1; the highest 2% begin near 2. The list shows a part of the results. Activity calls are given as the source filed them.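 How the source made its calls: active means z-score in the third read window above 3 or below -3; inactive means the rest.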

Biological target: Metabotropic glutamate receptor 8 (Rattus norvegicus) (UniProt P70579)
Experiment: rat mGluR8 modulators via GIRK flux, primary screen, cell-based, thallium flux, HTS (AID 488969)
Conditions: HEK293 rat mGluR8, GIRK (G protein-gated inwardly rectifying potassium channel) thallium flux, FluoZin2; at 10 µM; stronger effect = higher value; submaximal glutamate (EC20) added with thallium

UniProt P70579, sequence (P70579 whole entry, looked up): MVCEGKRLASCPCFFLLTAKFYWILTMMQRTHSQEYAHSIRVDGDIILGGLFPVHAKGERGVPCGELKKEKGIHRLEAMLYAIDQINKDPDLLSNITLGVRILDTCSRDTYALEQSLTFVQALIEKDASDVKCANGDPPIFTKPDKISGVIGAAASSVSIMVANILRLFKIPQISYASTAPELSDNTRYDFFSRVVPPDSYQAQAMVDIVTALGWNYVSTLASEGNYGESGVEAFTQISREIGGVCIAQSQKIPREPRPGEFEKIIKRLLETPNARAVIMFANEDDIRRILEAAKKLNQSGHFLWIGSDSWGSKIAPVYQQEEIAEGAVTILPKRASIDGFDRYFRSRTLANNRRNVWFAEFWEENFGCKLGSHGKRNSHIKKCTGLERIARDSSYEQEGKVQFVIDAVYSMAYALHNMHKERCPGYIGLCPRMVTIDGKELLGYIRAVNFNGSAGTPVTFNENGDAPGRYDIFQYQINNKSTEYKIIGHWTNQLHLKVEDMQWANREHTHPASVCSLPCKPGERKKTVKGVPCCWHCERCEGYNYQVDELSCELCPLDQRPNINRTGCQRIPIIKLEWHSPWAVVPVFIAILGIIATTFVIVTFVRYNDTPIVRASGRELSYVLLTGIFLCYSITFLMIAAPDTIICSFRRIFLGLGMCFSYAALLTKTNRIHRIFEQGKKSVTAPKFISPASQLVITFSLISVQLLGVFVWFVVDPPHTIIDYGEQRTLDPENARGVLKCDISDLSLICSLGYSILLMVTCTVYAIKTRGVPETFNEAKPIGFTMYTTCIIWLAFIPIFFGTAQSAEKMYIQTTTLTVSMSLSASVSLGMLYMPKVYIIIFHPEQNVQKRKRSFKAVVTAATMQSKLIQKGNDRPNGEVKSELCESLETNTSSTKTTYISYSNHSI

SMILES | z-score
CCCCC(CC)CNC(=O)C1CCCN(S(=O)(=O)c2cnc[nH]2)C1 (stereo not drawn) | -0.124
Cc1nc(NC(=O)C2CC2)sc1C(=O)N1CCCCC1 | 1.18
Cc1cccc(CSC2=NCCN2C(=O)c2ccco2)c1 | -0.824
FC(F)(F)c1cccc(NC(=S)Nc2ccc(Cl)cc2Cl)c1 | 1.29
Cc1ccc2c(C)nc(Nc3nc(CSc4nnc(C)s4)cc(=O)[nH]3)nc2c1 | -0.289
O=C(Nc1ccccc1N1CCN(C(=O)c2ccccc2)CC1)c1ccc2c(c1)OCO2 | 1.55
CCSc1nc2sc3c(c2c2nnc(SCC(=O)NCc4ccco4)n12)CCCC3 | -1.36
COc1ccc(C(C[N+](=O)[O-])c2c(-c3ccccc3)cc3ccccn23)cc1OC (stereo not drawn) | 0.481
Cc1occc1-c1nnc(SCC(=O)NCC2CCCO2)n1C (stereo not drawn) | -0.244
CC(C)C(=O)NC(C)C(c1cccs1)N1CCN(c2ccccc2)CC1 (stereo not drawn) | 0.0497
CC1CC1c1ccc(/C=C(\C#N)C(=O)Nc2cccc(Cl)c2Cl)o1 (stereo not drawn) | -0.485
Cc1cc(C)c2c(n1)sc1c(=O)[nH]c(SCc3ccccc3)nc12 | -0.591
O=C(Oc1ccc([N+](=O)[O-])cc1)c1cncc(Br)c1 | -0.639
CCCCN(CC)S(=O)(=O)c1ccc2c(c1)CCCN2C(C)=O | -0.0517
O=C(Nn1cnnc1)c1cc2cc(Br)ccc2oc1=O | active: 4.37
COCCNC(=O)c1c(N)n(-c2ccccc2)c2nc3ccccc3nc12 | -0.695
CN1CCN(CC(O)COCCOc2ccc(Br)cc2)CC1 (stereo not drawn) | -0.138
CCOC(=O)C1=C(C)NC(SCc2cc(=O)[nH][nH]2)=C(C#N)C1c1cccs1 (stereo not drawn) | -0.0437
CCOC(=O)C1CCN(C(=O)c2ccccc2NS(=O)(=O)c2cc(C)ccc2C)CC1 | 0.196
CCOC(=O)CSC1=C(C#N)C(c2ccco2)C(C(=O)Nc2cccc(C(F)(F)F)c2)=C(C)N1 (stereo not drawn) | -0.526
COc1ccc(CNc2nc(S(=O)(=O)c3ccccc3)c(Cl)s2)cc1OC | -0.056
CCN(CC)CCN1C(=O)C(=O)/C(=C(/O)c2c(C)[nH]c(C(=O)OC)c2C)C1c1ccccc1OC (stereo not drawn) | 0.463
Cc1ccc(NC(=S)N2CCN(Cc3ccc4c(c3)OCO4)CC2)c(C)c1 | -0.407

SMILES | z-score
CN1CCC(=NNC(=O)c2ccc(N(Cc3ccc(Cl)cc3)S(C)(=O)=O)cc2)CC1 | -0.0884
COc1ccc2[nH]c(=O)c(CN(CCO)C(=O)c3ccccc3F)cc2c1 | -0.951
Cn1c(CCNC(=O)c2ccccc2)nc2cc(NC(=O)C3CCCCC3)ccc21 | 0.756
CC(=O)C(=Nc1ccc(Cl)cc1Cl)NNc1cccc(Cl)c1 | -0.405
O=C(/C=C/c1cccs1)c1cc(Cl)ccc1OC(=O)N1CCOCC1 | -0.448
S=C(NCCSCc1ccc(Cl)c(Cl)c1)Nc1ccccc1 | -0.092
Cn1c(C2CCCN2C(=O)OC(C)(C)C)n[nH]c1=S (stereo not drawn) | -0.385
COc1cc2[nH]c3c(=O)n(CCN4CCCCC4)cnc3c2cc1OC | 0.755
O=C(NC1CCCCC1)N(Cc1nc2ccccc2c(=O)[nH]1)C1CCCC1 | 0.129
Cc1cccc(C(=O)N2CCC(Cc3ccccc3)CC2)c1[N+](=O)[O-] | active: 8.23
O=C1C(Cc2ccc(O)cc2)NC(=S)N1c1ccccc1 (stereo not drawn) | -0.375
Cc1ccc(NC(=O)c2cnn(-c3ccccc3)c2NC(=O)c2ccco2)cc1C | -0.171
CC(C)(C)C(=O)Nc1ccccc1N1CCN(C(=O)c2ccc(Cl)cc2)CC1 | -0.414
COC(=O)c1ccsc1NC(=O)CN1CCN(Cc2ccc3c(c2)OCO3)CC1 | -0.145
COc1ccccc1Cc1nnnn1CC(=O)O | 0.0206
COC(=O)c1ccc(Oc2c(C(F)(F)F)oc3c(CN4CCN(C)CC4)c(O)ccc3c2=O)cc1 | -0.0871
CCC(=O)N1CCN(c2cc(N3CCN(C)CC3)c(F)cc2[N+](=O)[O-])CC1 | 0.0648
COc1ccc(NC(=O)CC2SC(=NCC3CCCO3)NC2=O)cc1 (stereo not drawn) | 0.33
CN1C/C(=C/c2cccnc2)C(=O)/C(=C/c2cccnc2)C1 | 0.0351
Cc1cc(C)c2c(N)c(C(=O)NCC3CCCCC3)sc2n1 | -0.117
CC(C)CCNC(=O)c1ccc(C2SCC(=O)N2Cc2ccco2)cc1 (stereo not drawn) | -0.513
O=C(/C(C=Nc1ccc(Br)cc1)=C(/O)c1ccco1)C(F)(F)F | -0.324
O=C(CCCn1c(SCC(=O)c2ccc(O)c(O)c2)nc2ccccc2c1=O)NCC1CCCO1 (stereo not drawn) | -0.557

SMILES | z-score
Cc1nn(Cc2ccccc2Cl)c(C)c1NC(=O)CCCn1nc([N+](=O)[O-])c(Cl)c1C | -0.339
CCCOc1cccc(C(=O)Nc2cccnc2)c1 | 0.379
CC(c1ccco1)N(C(=O)Nc1ccccc1)C1CCCCC1 (stereo not drawn) | -0.242
Cc1cccc(OCC(=O)NNC(=O)CSc2ncc(C#N)c(N)n2)c1 | 0.132
O=C(Cn1cc([N+](=O)[O-])cn1)Nc1nc2ccccc2s1 | 0.0332
O=C(CSC1CC(=O)N(CCc2ccccc2)C1=O)Nc1ccc(Cl)cc1 (stereo not drawn) | -0.0174
COc1ccc(CCn2c(Br)nc3c2c(=O)[nH]c(=O)n3C)cc1 | -0.0329
Cc1onc(-c2ccccc2)c1C(=O)NCC1CCN(C(=O)c2c(-c3ccccc3)noc2C)CC1 | -0.402
Cc1ccc(OCC(=O)Nc2ccc(S(=O)(=O)Nc3onc(C)c3C)cc2)cc1 | 0.0571
Cc1cccc(NC(=O)CSc2nnc(-c3n[nH]c4ccccc34)o2)c1 | 0.53
O=C(Cn1cc(C(=S)N2CCOCC2)c2ccccc21)N1CCOCC1 | -0.257
Cc1ccc(-c2n[nH]c(=S)n2Cc2ccccc2)cc1 | -0.277
COc1ccc(C(=O)Nc2ccccc2C(=O)NC(C)C)cc1OC | -0.708
CCOc1ccccc1-n1c(CNc2ccc(F)cc2)nnc1SCC(=O)NCc1ccco1 | -0.53
Cc1ccc(N2CN=c3s/c(=C\c4ccccn4)c(=O)n3C2)cc1 | 0.203
CN(c1ccccc1C(=O)Nc1ccc2c(c1)OCCO2)S(C)(=O)=O | 0.0123
O=C(CCNC(=O)c1ccccc1Cl)Nc1ccc(Br)c(C(F)(F)F)c1 | -0.164
COc1ccc2c(C)c(Cl)c(=O)oc2c1 | -0.379
CCOc1nc(NCc2ccco2)nc(Nc2ccccc2F)n1 | -0.124
COc1ccc(NC(=O)Nc2ccc(OC)cc2)cc1 | -0.25
O=C(Nc1nc(N2C(=O)c3ccccc3C2=O)n(-c2ccccc2)n1)c1ccc(F)cc1 | -0.214
COc1ccc(S(=O)(=O)N2CCC(C(=O)c3ccc4c(c3)OCCO4)CC2)cc1 | -0.313
